In a collection of fitness landscapes (doi:10.1016/j.celrep.2020.107928):
In all, about 81,000 sequences were measured (“one-hybrid fitness for binding parS DNA”: median about -0.17, highest 2% from about 0.51 on). This is one part of the list.

B1: Caulobacter ParB omega fusion; a variant is named by its letters at X, in order, B8GW30 (parent)
chain: MESVVVGEPGMSEGRRGLGRGLSALLGEVDAAPAQAPGEQLGGSREAPIEILQRNPDQPRRTFREEDLEDLSNSIREKGVLQPILVRPSPDTAGEYQIVAGERAWRAAQRAGLKTVPIMVRELDDLAVLEIGIIENVQRADLNVLEEALSYKVLMEKFERTQENIAQTIGKSXSHVANXMRLLXLPDEVQSYLVSGELTAXHARAIAAAADPVALAKQIIEGGLSVRETEALARKAPNLSAGKSKGGRPPRVKDTDTQALESDLSSVLGLDVSIDHRGSTGTLTITYATLEQLDDLCNRLTRGI

Variants of: B1
Assay: one-hybrid fitness for binding parS DNA (scaled: cognate 1, non-cognate 0); higher = stronger binding
Conditions: with parS DNA site
Summary of the method: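 The reporter was HIS3, with the binding site 19 bp from the promoter, in E. coli USO used for bacterial one-hybrid selection of Caulobacter ParB libraries with four specificity codons randomised. Growth was on M9 lacking histidine, with 0.1 mM IPTG and 5 mM 3-AT, for 48 hours at 37°C. Illumina sequencing covered plasmids before and after selection; three replicate libraries were pooled and variants with under 10 reads dropped. A fitness score is the log change in variant-to-wild-type read ratio, rescaled to the cognate and non-cognate references.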

Variant | one-hybrid fitness for binding parS DNA
EMRT | ≤ 0.2
PTVS | ≤ 0.2
AEPR | ≤ 0.2
NVHN | ≤ 0.2
NHPD | ≤ 0.2
TPHH | ≤ 0.2
FPTS | ≤ 0.2
STKK | ≤ 0.2
AVTC | ≤ 0.2
LVSG | ≤ 0.2
YGTV | ≤ 0.2
QTWK | ≤ 0.2
RGRE | ≤ 0.2
QCTV | ≤ 0.2
TTYM | ≤ 0.2
YPDI | ≤ 0.2
VTMG | ≤ 0.2
NTQL | ≤ 0.2
YTNL | ≤ 0.2
WVLH | ≤ 0.2
VGWR | ≤ 0.2
HRYP | ≤ 0.2
EGES | ≤ 0.2
YSRY | ≤ 0.2
KLGS | ≤ 0.2

Variant | one-hybrid fitness for binding parS DNA
DYPS | ≤ 0.2
VVTP | ≤ 0.2
AVTG | ≤ 0.2
SHCG | ≤ 0.2
HQEC | ≤ 0.2
PHAG | ≤ 0.2
ANTF | ≤ 0.2
LCHS | ≤ 0.2
QPMA | ≤ 0.2
LLPI | ≤ 0.2
TDFK | ≤ 0.2
FYSR | ≤ 0.2
RIPN | ≤ 0.2
LKFG | ≤ 0.2
VALT | ≤ 0.2
YAMW | ≤ 0.2
KYLM | ≤ 0.2
EHHT | ≤ 0.2
FVYR | ≤ 0.2
QKCY | ≤ 0.2
TKDR | ≤ 0.2
VNHA | 0.272
DCWL | ≤ 0.2
RGSA | 0.399
RGRY | 0.413

Variant | one-hybrid fitness for binding parS DNA
HVTG | ≤ 0.2
DYYC | ≤ 0.2
DHHG | ≤ 0.2
TIRV | ≤ 0.2
TMGS | ≤ 0.2
NEQA | ≤ 0.2
FGER | ≤ 0.2
AGPR | ≤ 0.2
QSRC | ≤ 0.2
RPQT | ≤ 0.2
ARPC | ≤ 0.2
QRKI | ≤ 0.2
RFDP | ≤ 0.2
VMPM | ≤ 0.2
PTFA | ≤ 0.2
FIVD | ≤ 0.2
QRCW | ≤ 0.2
QLHY | ≤ 0.2
VPVI | ≤ 0.2
FCEG | ≤ 0.2
PFKS | ≤ 0.2
IPRT | ≤ 0.2
PYET | ≤ 0.2
KFVV | ≤ 0.2
DGAI | ≤ 0.2

Variant | one-hybrid fitness for binding parS DNA
ICAC | ≤ 0.2
QCYP | ≤ 0.2
EGPS | ≤ 0.2
LTQV | ≤ 0.2
GLSL | ≤ 0.2
RCIP | 0.228
WCRT | ≤ 0.2
AYWG | ≤ 0.2
MWSL | ≤ 0.2
LLKA | ≤ 0.2
CQGS | ≤ 0.2
SLWM | ≤ 0.2
TPVD | ≤ 0.2
VTGR | ≤ 0.2
DKLQ | ≤ 0.2
NVCD | ≤ 0.2
RIKA | 0.745
PERV | ≤ 0.2
TVNT | ≤ 0.2
QMRI | ≤ 0.2
LFDC | ≤ 0.2
SIGT | ≤ 0.2
NCPD | ≤ 0.2
TYAG | ≤ 0.2
SLSC | ≤ 0.2

Variant | one-hybrid fitness for binding parS DNA
PSHV | ≤ 0.2
RAVD | ≤ 0.2
DIYP | ≤ 0.2
RMVG | 0.971
LPSC | ≤ 0.2
TRWT | ≤ 0.2
QKFW | ≤ 0.2
MVKR | ≤ 0.2
NNGD | ≤ 0.2
ESKC | ≤ 0.2
ARLY | ≤ 0.2
HRGA | ≤ 0.2
NTKW | ≤ 0.2
LNMG | ≤ 0.2
EHIS | ≤ 0.2
RQQQ | ≤ 0.2
ADQN | ≤ 0.2
DRAQ | ≤ 0.2
IWNR | ≤ 0.2
EVMC | ≤ 0.2
RFAR | ≤ 0.2
RLVS | 1.03
QMPY | ≤ 0.2
IYRC | ≤ 0.2
CDPT | ≤ 0.2

Variant | one-hybrid fitness for binding parS DNA
YTNT | ≤ 0.2
TRCS | ≤ 0.2
MRVN | ≤ 0.2
GSAH | ≤ 0.2
YLSF | ≤ 0.2
VRYQ | ≤ 0.2
QQDA | ≤ 0.2
RMMM | 0.311
QHGY | ≤ 0.2
AWIT | ≤ 0.2
PSIR | ≤ 0.2
LEYC | ≤ 0.2
PKCY | ≤ 0.2
QAYF | ≤ 0.2
WIES | ≤ 0.2
EPTD | ≤ 0.2
CSPG | ≤ 0.2
LLTR | ≤ 0.2
QDPW | ≤ 0.2
SLVG | ≤ 0.2
NLLL | ≤ 0.2
RPHA | ≤ 0.2
ARTW | ≤ 0.2
HFFS | ≤ 0.2
YFCG | ≤ 0.2

Variant | one-hybrid fitness for binding parS DNA
PVMM | ≤ 0.2
QHKP | ≤ 0.2
RSHT | 0.876
PREG | ≤ 0.2
NVAE | ≤ 0.2
LAQM | ≤ 0.2
HIVR | ≤ 0.2
EQTC | ≤ 0.2
CDHS | ≤ 0.2
SPIE | ≤ 0.2
DANC | ≤ 0.2
IRTA | ≤ 0.2
PASW | ≤ 0.2
NADL | ≤ 0.2
RGIH | ≤ 0.2
SYPV | ≤ 0.2
QCSC | ≤ 0.2
LKVD | ≤ 0.2
FVKE | ≤ 0.2
LHEW | ≤ 0.2
YRPL | ≤ 0.2
NACC | ≤ 0.2
TSSP | ≤ 0.2
SYMS | ≤ 0.2
TYLE | ≤ 0.2

Variant | one-hybrid fitness for binding parS DNA
TYNF | ≤ 0.2
ETRD | ≤ 0.2
NDMF | ≤ 0.2
FAFN | ≤ 0.2
SHPY | ≤ 0.2
FSQG | ≤ 0.2
QKPW | ≤ 0.2
QQWV | ≤ 0.2
ATQF | ≤ 0.2
WQCG | ≤ 0.2
MLQS | ≤ 0.2
AFFT | ≤ 0.2
HDCG | ≤ 0.2
MTNC | ≤ 0.2
DQAY | ≤ 0.2
PGEW | ≤ 0.2
LPFK | ≤ 0.2
WTCT | ≤ 0.2
MTSM | ≤ 0.2
WRMR | ≤ 0.2
